A word on the Kd: it is the constant that tells how readily two partners part at equilibrium. The low end stands for higher affinity, the high end for lower affinity. For orientation: koff means the first-order rate constant of dissociation. Read a high koff as fast dissociation. In general, kon refers to the second-order rate constant of association. Read a high kon as fast association.

These results are taken from patent publication US20040019187A1 (published 2004).

The test has as its target T1, human MHC class II DR protein (DRA*0101/DRB1*0401) purified from PRIESS cells (human, UniProt P01903; P01911 30-266, limits assumed).
T1 construct: mature; Detergent-solubilised native heterodimer purified on LB3.1 antibody beads; also called HLA-DR protein; MHCII
Description: SPR (BIAcore), 500RU MHCII on chip, scFv injected. Background: In SPR one partner is held on a chip, and binding of the other changes the refractive index at the surface.

B1: MS-GPC-6 scFv (scFv)
chain: [about 100 residues not shown]GYGRYSPDLWGQGTLVTVSSAGGGSGGGGSGGGGSGGGGSDIVLTQSPATLSLSPGERATLSCRASQSVSSSYLAWYQQKPGQAPRLLIYGASSRATGVPARFSGSGSGTDFTLTISSLEPEDFAVYYCQQYSNLPFTFGQGTKVEIKRTEFDYKDDDDKGAPWSHPQFEK
On to B1, for which the Kd was 4.6 µM, the koff was 0.2 s⁻¹ and the kon was 43500 M⁻¹ s⁻¹.
